# Experimental data from PubChem BioAssay AID1362 (SRMLSC, 2008).
# The other results are listed elsewhere or left out. These are further read-outs of the screen, such as a control signal, another cell line or another target. No call is given for them. Compounds called inactive in the main read-out are mostly missing here.
# Assay: growth inhibition of WT strain, primary screen, mitochondrial fusion inhibitor project, WT and mutant strains, chemical genetic (AID 1362); further: tested in S. cerevisiae
# Settings: mitochondrial fusion phenotypic screen, at 10 µM
row,Structure (SMILES),inhibition
1,CC1CCN(c2nc(CN3CCCCC3)nc3scc(-c4ccccc4)c23)CC1,26.5%
2,O=C1NCN(c2ccccc2)C12CCN(CCCC(c1ccc(F)cc1)c1ccc(F)cc1)CC2,36.9%
3,N#CC(C#N)=C1C=CC=CN1/C(=C\c1ccccc1Cl)C(=O)c1ccccc1,-8.32%
4,N=c1c(C(=O)NCc2ccco2)cc2c(=O)n3ccccc3nc2n1Cc1ccc(Cl)cc1,8.14%
5,COc1ccc(/C=C/c2cc(-c3ccc(C)cc3)o[n+]2C)cc1,46.6%
6,Clc1ccc(-c2cc3ccccc3nc2N2CCCC2)cc1,66%
7,CCN(CC)CCCn1c(C)cc2c(c1=O)C(c1cccc(Cl)c1)C(C#N)=C(N)O2 (centres undefined),1.78%
8,CCCCCc1ccc(OCCOCCn2c[n+](C)c3ccccc32)c(CCCCC)c1,92.6%
9,CC(CC(=O)Nc1ccc(Cl)c([N+](=O)[O-])c1)c1ccccc1 (centres undefined),68.3%
10,C#CC[N+](C)(C)CCCCCCCCCCCC,73.8%
11,O=C(c1ccccn1)N1N=C2/C(=C/c3ccc(F)cc3)CCCC2C1c1ccc(F)cc1 (centres undefined),17.9%
12,CC(C)c1ccc(S(=O)(=O)c2ccc(NN)cc2)cc1,41.2%
13,Cc1ccc(CN2CCN(/N=C/c3ccc(C(F)(F)F)cc3)CC2)c(C)c1,20.3%
14,Cc1ccc(Oc2nc(CN3CCOCC3)nc3sc4c(c23)CCC(C)C4)cc1 (centres undefined),43.2%
15,CC(C)c1nc(N2CCN(C(=O)c3ccco3)CC2)c2c3c(sc2n1)CCCC3,55.7%
16,COc1ccccc1-n1c(SCC(=O)c2ccc(O)cc2O)nc2cc([N+](=O)[O-])ccc21,-15%
17,CC(=O)N1c2ccc3ccccc3c2C(C)CC12CCCCC2 (centres undefined),51.7%
18,Cn1c(SCc2c(F)cccc2Cl)nc2c(c1=O)SCC2,48.9%
19,Cc1ccc(C)c(N2CCN(C(=O)C3CCN(c4nc(C)cc(C)n4)CC3)CC2)c1,17.8%
20,Clc1ccc(-c2nnc(NCc3ccccc3)c3ccccc23)cc1,62.7%
21,O=C(Nc1ccc(Br)cc1)c1cccn1-c1ncc(C(F)(F)F)cc1Cl,31.4%
22,COC(=O)CCC(=O)Nc1sc(Cc2ccccc2)c(C)c1C(N)=O,31.4%

row,Structure (SMILES),inhibition
1,CC(C)C(c1nnnn1C(C)(C)C)N1CCC(Cc2ccccc2)CC1 (centres undefined),-1.74%
2,CCOC(=O)Nc1nc(-c2ccccc2)c(C(=O)c2ccc(Cl)cc2)s1,27.9%
3,Cc1[nH]c2ccc(F)cc2c1CCN(Cc1ccco1)C(=S)NC(C)(C)C,9.14%
4,Cc1ccc(S(=O)(=O)N2c3cc(C)ccc3OCC2C(C)(C)C)cc1 (centres undefined),54.9%
5,Cc1ccc(NC2=C(NC(=O)c3ccccc3)C(=O)c3ccccc3C2=O)cc1Cl,23.3%
6,C[n+]1c2n(c3ccccc31)N=C(c1ccc(-c3ccccc3)cc1)CS2,77.5%
7,Cc1cc(Cl)ccc1OCC(=O)N1CCCN(C(=O)COc2ccc(Cl)cc2C)CC1,27.2%
8,COc1ccc(-c2noc(-c3ccccc3-c3ccccc3)n2)cc1OC,5.13%
9,Cc1ccc(CSc2nnc(-c3ccccc3N)c(=O)[nH]2)cc1,56.5%
10,O=[N+]([O-])c1ccccc1/C=N/n1c(C2CCCCC2)n[nH]c1=S,-2.49%
11,CCCN(CCC)c1nc2ccccc2nc1C(C#N)C(=O)OC(C)COC (centres undefined),30.9%
12,Cc1cc(NCCCn2ccnc2)n2ncc(-c3ccc(Cl)cc3)c2n1,-46.6%
13,O=S(=O)(NCCSCc1ccc(Cl)cc1Cl)c1ccc2c(c1)OCCO2,25.8%
14,Oc1ccc(/C=N/Nc2cc(N3CCCC3)nc(N3CCCC3)n2)cc1,56.7%
15,C#C[C@]1(O)CC[C@H]2[C@@H]3CCc4cc(OC5CCCC5)ccc4[C@H]3CC[C@@]21C,60.2%
16,O=C(NC(=S)NC1CCCc2ccccc21)c1ccco1 (centres undefined),61.4%
17,S=C(Nc1ccc(Cl)c(Cl)c1)NC1CCN(Cc2ccccc2)CC1,73.4%
18,COc1cccc(N2CCN(c3ncnc4c3[nH]c3ccccc34)CC2C)c1 (centres undefined),30.5%
19,Clc1ccc(-c2csc3ncnc(N4CCc5ccccc5C4)c23)cc1,-8.84%
20,O=c1c2ccccc2c(-c2ccccc2)nn1Cc1c(Cl)cccc1Cl,29%
21,C=CCN(CC=C)c1nc2ccccc2nc1C(C#N)C(=O)OCCOC (centres undefined),42.2%
22,Brc1ccc(C2=CC(c3cccs3)n3ncnc3N2)cc1 (centres undefined),45.1%

row,Structure (SMILES),inhibition
1,CC1=NN(c2nc3ccccc3[nH]2)C(=O)/C1=C/N(C)C,81.7%
2,CC(=O)Oc1c(Cl)cc(Cl)cc1/C=C/c1ccc2ccccc2n1,42.2%
3,Cc1ccc2nc(N(CCCN(C)C)C(=O)c3sc4ccccc4c3Cl)sc2c1,75%
4,O=C(N1CCOCC1)N1CCN(C(c2ccccc2)c2ccccc2)CC1,-2.64%
5,Cc1c(Cl)cccc1NC(=S)NCC1COc2ccccc2O1 (centres undefined),58.9%
6,COc1ccc(-c2nc(-c3ccccn3)no2)cc1,52.5%
7,COc1cccc(OC)c1C(=O)NC(C)C12CC3CC(CC(C3)C1)C2 (centres undefined),57.2%
8,Cc1cc(Cl)ccc1OCC(=O)Nc1nc(-c2cccs2)cs1,-4.43%
9,O=C(CSCC(=O)N1CCCCC1)Nc1nc(-c2ccccc2)c(-c2ccccc2)s1,-2.61%
10,CC(C)OC(=O)C(=O)NNc1ccccc1,61.8%
11,CCOc1ccc(-c2nc(N)ncc2Oc2ccccc2Br)c(O)c1,16.1%
12,COc1ccc(C2=NN(C(=O)c3cccs3)C(c3ccccc3O)C2)cc1 (centres undefined),17.7%
13,C=CCOc1ccc2ccccc2c1CNCCCN1CCOCC1,-8.76%
14,COc1ccc(NC(=O)c2cc(-c3ccccc3Cl)no2)cc1,7.14%
15,CCOCCCNC(=S)N1CCCN(c2nc3c(C)c(C)ccc3cc2C#N)CC1,18.5%
16,CCOc1ccc(S(=O)(=O)N2CCN(C(=O)c3cc4c(s3)CCCC4)CC2)cc1,3.08%
17,Cc1cc(C)c(-c2noc(C(=O)OC(C)(C)C)c2C(=O)OC(C)(C)C)c(C)c1,-3.23%
18,C(=N\Nc1nc(Nc2ccccc2)nc(Nc2ccccc2)n1)/c1cccnc1,21.4%
19,CC1CN(c2ncnc3c2c(-c2ccccc2)cn3-c2ccc(F)cc2)CC(C)O1 (centres undefined),-16.1%
20,CC1(C)CC(=O)c2c(O)cc(OCc3ccc([N+](=O)[O-])cc3)cc2O1,2.05%
21,COc1ccc(-c2[nH]c(-c3ccc4c(c3)OCO4)nc2-c2ccccc2)cc1,33.5%
22,NC(=O)c1cc(Br)cc2c3c([nH]c12)CCCC3,49.3%

row,Structure (SMILES),inhibition
1,CC1(C)Cc2ccccc2-c2nnc(SCC(=O)N3CCN(c4ccccc4)CC3)n21,38.4%
2,C/C(=N\NC(N)=S)C1C2C3CC4C5CC(C42)C1C53 (centres undefined),64.5%
3,CCCCNC(=S)N1CCN(c2ccccc2Cl)CC1,45.9%
4,Cc1ccccc1Nc1c(-c2ccccn2)nc2ccccn12,54.3%
5,C/C(=N\Nc1nc2c(s1)CCCC2)c1ccc(Cl)cc1,67.2%
6,Cc1ccc(-n2c(N)c(C#N)c(-c3ccccc3)c(C#N)c2=O)cc1,-4.45%
7,COc1ccccc1-n1c(=O)oc2ccc(Cl)cc2c1=O,75%
8,Cc1onc(-c2ccccc2Cl)c1C(=O)Nc1nnc(-c2ccc(Cl)cc2Cl)s1,33.1%
9,Cc1cc(Nc2ccccc2)nc2cc(O)ccc12,56.9%
10,CC(C)c1cc(C(N)=O)c(NC(=O)c2cccc(COc3ccc(Cl)cc3)c2)s1,19.8%
11,Cc1cccc(-c2nnc3sc(-c4ccccc4C)nn23)c1,40.1%
12,COC(=O)Cc1ccc(NC(=S)NCCSc2ccc(C)cc2)cc1,33.1%
13,COc1ccccc1NC(=S)N(Cc1cccs1)C1CCCC1,42%
14,O=C(c1ccc2[nH]c3c(c2c1)CCCC3)N1CCN(c2ccc(F)cc2)CC1,49.9%
15,COc1ccc(Sc2cc(C(F)(F)F)nc(-c3ccccn3)n2)cc1,56.3%
16,CCCC(C)NC(=S)Nc1cc(C)cc(C)c1 (centres undefined),69.6%
17,CC(C)C(=O)NC(=S)Nc1ccc(S(=O)(=O)N(C)Cc2ccccc2)cc1,29.9%
18,Cc1ccc2sc(N(CCCN(C)C)C(=O)CN3C(=O)c4ccccc4C3=O)nc2c1C,87.7%
19,COc1ccc(C2C=C(C34CC5CC(CC(C5)C3)C4)NC(=S)N2)cc1 (centres undefined),42.8%
20,CCc1nn(C(C)C(=O)N2CCN(Cc3ccccc3)CC2)c(=O)c2cc3occc3n12 (centres undefined),3.04%
21,Cc1nonc1C1CCCN1Cc1cn[nH]c1-c1ccc(-c2ccccc2)cc1 (centres undefined),26.7%
22,Cc1oc(-c2ccccc2)[n+]([O-])c1C,-3.32%

row,Structure (SMILES),inhibition
1,Cc1nc2c(-c3ccc(F)cc3)c(C)nn2c(C)c1CCC(=O)N1CCC(Cc2ccccc2)CC1,22.4%
2,COc1cc2c(cc1NC(=O)C(C)NCc1ccccc1)oc1ccccc12 (centres undefined),32.7%
3,Cc1cc(C)nc(-n2nc(C)cc2Nc2ccccc2)n1,71.3%
4,Fc1ccc(-c2csc3[n+]2CCS3)cc1,47.4%
5,Cc1cccc(NCc2nc3ccccc3n2Cc2ccccc2)c1,57.6%
6,Clc1ccc(C2=NNC(=NCc3ccc4c(c3)OCO4)SC2)cc1,1.65%
7,Cc1ccc2nc(-c3ccccc3)c(CN3CCN(c4ccccc4F)CC3)n2c1,16%
8,COC(=O)C(Nc1ccccc1Cl)(c1cc(C)c(O)c(C)c1)C(F)(F)F (centres undefined),81%
9,Cc1ccc(NC2(c3nnnn3-c3c(C)cccc3C)CCCCC2)cc1,48.1%
10,COc1ccc(S(=O)(=O)Oc2ccc3ccccc3c2)cc1,23.8%
11,O=S(=O)(Nc1ccc(O)c(Sc2nc3ccccc3s2)c1)c1cccc2ccccc12,14.5%
12,Cc1ccc(Cn2c(Cc3ccccc3)nc3ccccc32)cc1,60.2%
13,Cc1ccc(N=Nc2c(N)[nH]n3c(=O)cc(-c4ccccc4)nc23)cc1,21%
14,Clc1ccc(-c2n[nH]c3c2CCC3)c(Cl)c1,58.9%
15,COc1ccc(-c2csc(Nc3ccccc3)n2)cc1,63.9%
16,Cc1ccc2oc(=O)n(CCCOc3ccccc3C)c2c1,15.7%
17,CCc1cc2c(=O)c(-c3cscn3)coc2cc1O,-1.18%
18,CCC(C(=O)OCC(=O)Nc1cc(Cl)cc(Cl)c1)c1ccccc1 (centres undefined),40.5%
19,CCCCCCCCCCCCCCCC[n+]1ccc(/C=N/O)cc1,96.9%
20,CCOc1ccc2c(c1)OC(c1ccc(C)cc1)(C(F)(F)F)NC2=O (centres undefined),33%
21,COCCn1c(=S)[nH]c2cc(C(=O)N3CCc4ccccc43)ccc2c1=O,18.8%
